Publication PMC9260856
Results are given in words; binding and its absence hold for the method and conditions named. Binding seen in cells or lysates may run through a third protein. Some entries that bind do so weakly or less than the wild type. For part of these data: Tags and fused reporters may be left off the sequences shown.

Amino acid sequences for entries named in this document (tags omitted). A change or cut given only in a name is not applied to a line headed by its entry.
UniProt P68400: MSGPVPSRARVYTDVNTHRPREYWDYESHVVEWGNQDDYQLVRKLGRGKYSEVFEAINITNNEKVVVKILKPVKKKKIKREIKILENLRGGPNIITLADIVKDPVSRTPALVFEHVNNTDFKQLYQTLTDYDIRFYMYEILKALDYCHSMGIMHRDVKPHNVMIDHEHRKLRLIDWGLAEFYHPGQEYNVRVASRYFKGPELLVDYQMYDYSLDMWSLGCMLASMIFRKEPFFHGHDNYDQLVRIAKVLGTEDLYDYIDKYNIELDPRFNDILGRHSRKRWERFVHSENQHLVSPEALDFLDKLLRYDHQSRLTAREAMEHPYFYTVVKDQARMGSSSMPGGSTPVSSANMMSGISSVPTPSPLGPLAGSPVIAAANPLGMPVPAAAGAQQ
UniProt P63208: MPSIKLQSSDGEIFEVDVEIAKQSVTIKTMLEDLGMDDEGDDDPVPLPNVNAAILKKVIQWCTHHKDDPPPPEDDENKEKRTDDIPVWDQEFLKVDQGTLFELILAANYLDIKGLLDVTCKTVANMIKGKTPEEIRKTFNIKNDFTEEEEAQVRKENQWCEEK

B1: FBXO38, endogenous in HEK293T cells (protein, UniProt Q6PIJ6 1-1188)
chain: MGPRKKSVKTCIMNNEIPEEMTADETKDYMNQLSHEVLCHIFRYLPLQDIMCMECLSRKLKEAVTLYLRVVRVVDLCAGRWWEYMPSGFTDASFLTLLKKMPDVEQLYGLHPRYLERRRVRGHEAFSIPGVLEALQACPNLVGVETSHLELVESIWTYMPHVHILGKFRNRNGAFPIPPENKLKIPIGAKIQTLHLVGVNVPEIPCIPMLRHLYMKWVRLTKPQPFKDFLCISLRTFVMRNCAGPTNSLKYVPLVTGLASARNLEHLEMVRVPFLGGLIQHVVEDSWRSGGFRNLHTIVLGACKNALEVDLGYLIITAARRLHEVRIQPSLTKDGVFSALKMAELEFPQFETLHLGYVDEFLLQSRMANADLVKYGLADVVENPGIITDIGMKAVNEVFSCIKYLAIYNCPHLHNPYNWISDHSRWTRLVDINLVRCHALKLDSFGQFIELLPSLEFISLDQMFREPPKGCARVGLSAGTGIGVSSALVSNQNSNNDDNNAQNNNANIHDNNHHHPDDSDEENDFRQDLQPGEQQFAADALNEMEDIVQEDGEVVAESGNNTPAHSQAIIPVDVDEEQAGPSGLQRVVKPTSITVHDSESDDEEDSLELQEVWIPKNGTRRYSEREEKTGESVQSRELSVSGKGKTPLRKRYNSHQMGQSKQFPLEESSCEKGCQVTSEQIKADMKAARDIPEKKKNKDVYPSCSSTTASTVGNSSSHNTASQSPDFVRTVNSGGSSEPSPTEVDVSRQCACSPGGSEDSEAMEEGDAESSVCPRCCCHRPQESQRRTSRCSDEERPSTSRACVVNGPDGTRSAFSFRTLPQGGSSGPAHDERTNGSGSGATGEDRRGSSQPESCDVQSNEDYPRRPLTRARSRLSHVLLVSESEVAKTKPRHAMKRKRTADKSTSTSDPVIEDDHVQVLVLKSKNLVGVTMTNCGITDLVLKDCPKMMFIHATRCRVLKHLKVENAPIVNRFDYAQCKKLNMDQVLDQILRMPPERNRIIYLRPMQQVDTLTLEQKLFSGPYPYHICIIHEFSNPPNVRNKVRIRSWMDTIANINQELIKYEFFPEATRSEEDLKKYPKYPWGREIYTLEGVVDGAPYSMISDFPWLRSLRAAEPNSFARYDFEDDEESTIYAPRRKGQLSADICMETIGEEISEMRQMKKGVFQRVVAIFIHYCDVNGEPVEDDYI
B2: RRM2, endogenous in HEK293T cells (protein, UniProt P31350 1-389)
chain: MLSLRVPLAPITDPQQLQLSPLKGLSLVDKENTPPALSGTRVLASKTARRIFQEPTEPKTKAAAPGVEDEPLLRENPRRFVIFPIEYHDIWQMYKKAEASFWTAEEVDLSKDIQHWESLKPEERYFISHVLAFFAASDGIVNENLVERFSQEVQITEARCFYGFQIAMENIHSEMYSLLIDTYIKDPKEREFLFNAIETMPCVKKKADWALRWIGDKEATYGERVVAFAAVEGIFFSGSFASIFWLKKRGLMPGLTFSNELISRDEGLHCDFACLMFKHLVHKPSEERVREIIINAVRIEQEFLTEALPVKLIGMNCTLMKQYIEFVADRLMLELGFSKVFRVENPFDFMENISLEGKTNFFEKRVGEYQRMGVMSSPTENSFTLDADF

Columns and labels:
[1] = target: T1, SF-tagged DEDD2, transfected in HEK293T cells (UniProt Q8WXF8); experiment: co-IP; SF-tagged bait affinity-purified on Strep-Tactin Sepharose from whole-cell lysates of transfected HEK293T cells (150 mM NaCl, 50 mM Tris pH 7.5, 0.4% Triton X-100, Benzonase), desthiobiotin elution, immunoblot; MLN4924 before collecting where indicated
T1 sequence: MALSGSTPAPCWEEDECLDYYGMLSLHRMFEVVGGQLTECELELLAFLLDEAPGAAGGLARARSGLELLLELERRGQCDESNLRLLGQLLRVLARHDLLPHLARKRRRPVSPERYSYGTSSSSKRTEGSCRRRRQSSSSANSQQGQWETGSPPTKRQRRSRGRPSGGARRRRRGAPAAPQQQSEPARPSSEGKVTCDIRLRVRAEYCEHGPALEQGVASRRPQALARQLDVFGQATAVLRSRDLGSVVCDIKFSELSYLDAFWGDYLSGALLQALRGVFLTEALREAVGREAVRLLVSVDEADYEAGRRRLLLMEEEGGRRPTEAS

[2] = target: T2, StrepII-FLAG-tagged ZXDA (SF-ZXDA), transfected in HEK293T cells (human) (UniProt P98168); experiment: as above
T2 sequence: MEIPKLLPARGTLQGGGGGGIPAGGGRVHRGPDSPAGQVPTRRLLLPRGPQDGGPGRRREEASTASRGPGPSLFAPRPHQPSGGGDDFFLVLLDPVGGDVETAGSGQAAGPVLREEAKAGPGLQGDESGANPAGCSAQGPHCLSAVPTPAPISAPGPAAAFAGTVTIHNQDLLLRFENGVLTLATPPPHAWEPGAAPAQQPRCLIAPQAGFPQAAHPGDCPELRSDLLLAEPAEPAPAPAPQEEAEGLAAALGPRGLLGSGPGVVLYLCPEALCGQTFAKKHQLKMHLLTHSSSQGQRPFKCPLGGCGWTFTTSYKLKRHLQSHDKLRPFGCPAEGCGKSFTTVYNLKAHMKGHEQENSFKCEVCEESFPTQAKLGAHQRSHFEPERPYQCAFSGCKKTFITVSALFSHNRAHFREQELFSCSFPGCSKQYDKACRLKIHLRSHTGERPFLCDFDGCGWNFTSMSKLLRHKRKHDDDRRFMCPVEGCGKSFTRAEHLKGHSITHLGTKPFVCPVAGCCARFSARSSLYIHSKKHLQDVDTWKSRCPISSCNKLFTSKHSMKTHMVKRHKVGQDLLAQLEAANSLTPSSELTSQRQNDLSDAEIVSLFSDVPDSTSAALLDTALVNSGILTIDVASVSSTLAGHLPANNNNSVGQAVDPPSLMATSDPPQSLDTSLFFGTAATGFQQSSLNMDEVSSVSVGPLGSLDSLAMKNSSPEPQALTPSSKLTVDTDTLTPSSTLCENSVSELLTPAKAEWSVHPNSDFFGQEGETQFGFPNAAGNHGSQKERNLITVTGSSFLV

[3] = target: T3, HA-tagged full-length (FL) ZXDA, transfected in HEK293T cells (human) (UniProt P98168); experiment: co-IP; HA-tagged ZXDA immunoprecipitated with anti-HA beads from whole-cell lysates of transfected HEK293T cells treated with MLN4924 for 6 h; immunoblot
T3 sequence: T2 sequence

[4] = target: T4, SF-Cyclin F, transfected in HEK293T cells (UniProt P41002); experiment: co-IP; SF-tagged bait affinity-purified on Strep-Tactin Sepharose from whole-cell lysates of transfected HEK293T cells (150 mM NaCl, 50 mM Tris pH 7.5, 0.4% Triton X-100, Benzonase), desthiobiotin elution, immunoblot; MLN4924 before collecting where indicated
T4 sequence: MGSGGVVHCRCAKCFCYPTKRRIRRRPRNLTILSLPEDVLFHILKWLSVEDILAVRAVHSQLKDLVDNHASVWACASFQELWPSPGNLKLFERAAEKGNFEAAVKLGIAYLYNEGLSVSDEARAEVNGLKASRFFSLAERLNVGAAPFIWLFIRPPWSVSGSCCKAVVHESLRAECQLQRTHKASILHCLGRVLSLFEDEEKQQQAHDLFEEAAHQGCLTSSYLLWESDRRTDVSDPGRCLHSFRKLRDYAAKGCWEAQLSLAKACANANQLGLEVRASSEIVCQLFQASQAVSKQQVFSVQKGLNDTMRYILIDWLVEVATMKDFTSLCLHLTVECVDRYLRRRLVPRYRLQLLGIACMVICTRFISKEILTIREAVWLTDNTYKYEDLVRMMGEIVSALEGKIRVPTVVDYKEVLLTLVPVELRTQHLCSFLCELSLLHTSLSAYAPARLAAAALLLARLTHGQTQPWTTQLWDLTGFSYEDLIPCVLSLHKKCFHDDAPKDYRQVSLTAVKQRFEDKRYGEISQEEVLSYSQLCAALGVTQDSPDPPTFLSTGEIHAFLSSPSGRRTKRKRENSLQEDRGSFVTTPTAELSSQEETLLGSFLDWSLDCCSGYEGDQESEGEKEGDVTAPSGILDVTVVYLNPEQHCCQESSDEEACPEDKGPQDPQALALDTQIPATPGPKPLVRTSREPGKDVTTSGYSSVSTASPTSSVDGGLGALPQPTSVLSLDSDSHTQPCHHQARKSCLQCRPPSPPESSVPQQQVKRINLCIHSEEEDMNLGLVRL

Row | Molecule | binding [1] | binding [2] | binding [3] | binding [4]
1 | casein kinase 2 (CK2), endogenous in HEK293T cells (from UniProt P68400 1-391; P67870 1-215) (complex) | no binding | binds | – | –
2 | SKP1, endogenous in HEK293T cells (from UniProt P63208 1-163) | – | binds | – | –
3 | B1 | – | binds | binds | –
4 | B2 | – | – | – | binds
